In patent publication US8067379B2, “Sulfur compounds as inhibitors of hepatitis C virus NS3 serine protease” (Schering Corporation, priority 2004, dated 2011):

molecular target: Recombinant heterodimeric HCV NS3/NS4A protease (strain 1a) (Hepatitis C virus genotype 1a, UniProt P27958); assay: Spectrophotometric assay for HCV serine protease inhibitory activity (chromogenic ester substrates); assay type: biochemical; conditions: Table 3A; class symbols; read-out: Ki* Range

Row | SMILES | Ki
1 | C=CCNC(=O)C(=O)C(CCC1CC1)NC(=O)[C@@H]1[C@@H]2[C@H](CN1C(=O)[C@@H](NC(=O)NC1(CS(=O)(=O)CC(F)(F)F)CCCCC1)C1(C)CCCCC1)C2(C)C (stereo partly drawn) [Compound 543] | < 0.075 µM
2 | C=CCNC(=O)C(=O)C(CC1CC1)NC(=O)[C@@H]1[C@@H]2[C@H](CN1C(=O)[C@@H](NC(=O)NC1(CS(=O)(=O)C3CCCC3)CCCCC1)C1(C)CCCCC1)C2(C)C (stereo partly drawn) [Compound 544] | < 0.075 µM
3 | CC1([C@H](NC(=O)NC2(CS(=O)(=O)C3CCCC3)CCCCC2)C(=O)N2C[C@H]3[C@@H]([C@H]2C(=O)NC(CC2CC2)C(=O)C(=O)NC2CC2)C3(C)C)CCCCC1 (stereo partly drawn) [Compound 545] | < 0.075 µM
4 | CCCC(NC(=O)[C@@H]1[C@@H]2[C@H](CN1C(=O)[C@@H](NC(=O)NC1(CS(=O)(=O)C3CCCC3)CCCCC1)C1(C)CCCCC1)C2(C)C)C(=O)C(=O)NC1CC1 (stereo partly drawn) [Compound 546] | < 0.075 µM
5 | C=CCNC(=O)C(=O)C(CCC1CC1)NC(=O)[C@@H]1[C@H]2CC(C)(C)O[C@H]2CN1C(=O)[C@@H](NC(=O)NC1(CS(=O)(=O)C(C)(C)C)CCCCC1)C1CCCCC1 (stereo partly drawn) [Compound 547] | < 0.075 µM
6 | CCCC(NC(=O)[C@@H]1[C@H]2CC(C)(C)O[C@H]2CN1C(=O)[C@@H](NC(=O)NC1(CS(=O)(=O)C(C)(C)C)CCCCC1)C(C)(C)C)C(=O)C(=O)NC1CC1 (stereo partly drawn) [Compound 548] | 0.075 to 0.25 µM
7 | CCCC(NC(=O)[C@@H]1[C@@H]2[C@H](CN1C(=O)[C@@H](NC(=O)NC1(CS(=O)(=O)C(C)(C)CC)CCCCC1)C1(C)CCCCC1)[C@@]2(C)CO)C(=O)C(=O)NC1CC1 (stereo partly drawn) [Compound 549] | < 0.075 µM
8 | CC1([C@H](NC(=O)NC2(CS(=O)(=O)C3CCCCC3)CCCCC2)C(=O)N2C[C@H]3[C@@H]([C@H]2C(=O)NC(CC2CC2)C(=O)C(=O)NC2CC2)C3(C)C)CCCCC1 (stereo partly drawn) [Compound 550] | < 0.075 µM
9 | CCCC(NC(=O)[C@@H]1[C@@H]2[C@H](CN1C(=O)[C@@H](NC(=O)NC1(CS(=O)(=O)C3CCCCC3)CCCCC1)C1(C)CCCCC1)C2(C)C)C(=O)C(=O)NC1CC1 (stereo partly drawn) [Compound 551] | < 0.075 µM
10 | CCCC(NC(=O)[C@@H]1[C@H]2CC(C)(C)O[C@H]2CN1C(=O)[C@@H](NC(=O)NC1(CS(=O)(=O)C(C)(C)C)CCCCC1)C1CCCCC1)C(=O)C(=O)NC1CC1 (stereo partly drawn) [Compound 552] | 0.075 to 0.25 µM
11 | C=CCNC(=O)C(=O)C(CCC1CC1)NC(=O)[C@@H]1[C@@H]2[C@H](CN1C(=O)[C@@H](NC(=O)NC1(CS(=O)(=O)C(C)(C)C)CCCCC1)C1CCCCC1)C2(C)C (stereo partly drawn) [Compound 553] | < 0.075 µM
12 | CNC(=O)C(=O)C(CCC1CC1)NC(=O)[C@@H]1[C@@H]2[C@H](CN1C(=O)[C@@H](NC(=O)NC1(CS(=O)(=O)C(C)(C)C)CCCCC1)C1CCCCC1)C2(C)C (stereo partly drawn) [Compound 554] | < 0.075 µM
13 | CC1(C)[C@@H]2[C@@H](C(=O)NC(CCC3CC3)C(=O)C(=O)NC3CC3)N(C(=O)[C@@H](NC(=O)NC3(CS(=O)(=O)C(C)(C)C)CCCCC3)C3CCCCC3)C[C@@H]21 (stereo partly drawn) [Compound 555] | < 0.075 µM
14 | CC1(C)C[C@H]2[C@H](CN(C(=O)[C@@H](NC(=O)NC3(CS(=O)(=O)C(C)(C)C)CCCCC3)C(C)(C)C)[C@@H]2C(=O)NC(CC2CCC2)C(=O)C(=O)NC2CC2)O1 (stereo partly drawn) [Compound 556] | 0.075 to 0.25 µM
15 | C=CCNC(=O)C(=O)C(CC1CC1)NC(=O)[C@@H]1[C@@H]2[C@H](CN1C(=O)[C@@H](NC(=O)NC1(CS(=O)(=O)C3CCCCC3)CCCCC1)C1(C)CCCCC1)C2(C)C (stereo partly drawn) [Compound 557] | < 0.075 µM
16 | CC1(C)C[C@H]2[C@H](CN(C(=O)[C@@H](NC(=O)NC3(CS(=O)(=O)C(C)(C)C)CCCCC3)C3CCCCC3)[C@@H]2C(=O)NC(CC2CC2)C(=O)C(=O)NC2CC2)O1 (stereo partly drawn) [Compound 558] | 0.075 to 0.25 µM
17 | CC1(C)C[C@H]2[C@H](CN(C(=O)[C@@H](NC(=O)NC3(CS(=O)(=O)C(C)(C)C)CCCCC3)C(C)(C)C)[C@@H]2C(=O)NC(CC2CC2)C(=O)C(=O)NC2CC2)O1 (stereo partly drawn) [Compound 559] | 0.075 to 0.25 µM
18 | C=CCNC(=O)C(=O)C(CC1CC1)NC(=O)[C@@H]1[C@H]2CC(C)(C)O[C@H]2CN1C(=O)[C@@H](NC(=O)NC1(CS(=O)(=O)C(C)(C)C)CCCCC1)C1CCCCC1 (stereo partly drawn) [Compound 560] | < 0.075 µM
19 | C=CCNC(=O)C(=O)C(CC1CC1)NC(=O)[C@@H]1[C@H]2CC(C)(C)O[C@H]2CN1C(=O)[C@@H](NC(=O)NC1(CS(=O)(=O)C(C)(C)C)CCCCC1)C(C)(C)C (stereo partly drawn) [Compound 561] | < 0.075 µM
20 | CC1(C)C[C@H]2[C@H](CN(C(=O)[C@@H](NC(=O)NC3(CS(=O)(=O)C(C)(C)C)CCCCC3)C3CCCCC3)[C@@H]2C(=O)NC(CC2CCC2)C(=O)C(=O)NC2CC2)O1 (stereo partly drawn) [Compound 562] | 0.075 to 0.25 µM
21 | C=CCNC(=O)C(=O)C(CC1CC1)NC(=O)[C@@H]1[C@@H]2[C@H](CN1C(=O)[C@@H](NC(=O)NC1(CS(=O)(=O)CC(F)(F)F)CCCCC1)C(C)(C)C)C2(C)C (stereo partly drawn) [Compound 563] | < 0.075 µM
22 | C=CCNC(=O)C(=O)C(CCC1CC1)NC(=O)[C@@H]1[C@@H]2[C@H](CN1C(=O)[C@@H](NC(=O)NC1(CS(=O)(=O)CC(F)(F)F)CCCCC1)C(C)(C)C)C2(C)C (stereo partly drawn) [Compound 564] | < 0.075 µM
23 | CC(C)(C)[C@H](NC(=O)NC1(CS(=O)(=O)CC(F)(F)F)CCCCC1)C(=O)N1C[C@H]2[C@@H]([C@H]1C(=O)NC(CC1CC1)C(=O)C(=O)NC1CC1)C2(C)C (stereo partly drawn) [Compound 565] | < 0.075 µM

Row | SMILES | Ki
24 | CC(C)(C)[C@H](NC(=O)NC1(CS(=O)(=O)C(C)(C)C)CCCCC1)C(=O)N1C[C@H]2[C@@H]([C@H]1C(=O)NC(CCC1CC1)C(=O)C(=O)NCCC1CC1)C2(C)C (stereo partly drawn) [Compound 567] | < 0.075 µM
25 | CC1([C@H](NC(=O)NC2(CS(=O)(=O)C(C)(C)C)CCCCC2)C(=O)N2C[C@H]3[C@@H]([C@H]2C(=O)NC(CCC2CC2)C(=O)C(=O)NCCC2CC2)C3(C)C)CCCCC1 (stereo partly drawn) [Compound 568] | < 0.075 µM
26 | CC1(C)[C@@H]2[C@@H](C(=O)NC(CCC3CC3)C(=O)C(=O)NCCC3CC3)N(C(=O)[C@@H](NC(=O)NC3(CS(=O)(=O)C(C)(C)C)CCCCC3)C3CCCCC3)C[C@@H]21 (stereo partly drawn) [Compound 569] | < 0.075 µM
27 | CC(C)C[C@](C)(CS(=O)(=O)C(C)(C)C)NC(=O)N[C@H](C(=O)N1C[C@H]2[C@@H]([C@H]1C(=O)NC(CCC1CC1)C(=O)C(=O)NC1CC1)C2(C)C)C1(C)CCCCC1 (stereo partly drawn) [Compound 570] | < 0.075 µM
28 | C=CCNC(=O)C(=O)C(CCC1CC1)NC(=O)[C@@H]1[C@@H]2[C@H](CN1C(=O)[C@@H](NC(=O)N[C@](C)(CC(C)C)CS(=O)(=O)C(C)(C)C)C1(C)CCCCC1)C2(C)C (stereo partly drawn) [Compound 571] | < 0.075 µM
29 | CC(C)CC(NC(=O)[C@@H]1[C@@H]2[C@H](CN1C(=O)[C@@H](NC(=O)NC1(CS(=O)(=O)C(C)(C)C)CCCCC1)C1(C)CCCCC1)C2(C)C)C(=O)C(=O)NC1CC1 (stereo partly drawn) [Compound 572] | 0.075 to 0.25 µM
30 | CC(C)CC(NC(=O)[C@@H]1[C@@H]2[C@H](CN1C(=O)[C@@H](NC(=O)NC1(CS(=O)(=O)C(C)(C)C)CCCCC1)C(C)(C)C)C2(C)C)C(=O)C(=O)NC1CC1 (stereo partly drawn) [Compound 573] | 0.075 to 0.25 µM
31 | CC(C)CC(NC(=O)[C@@H]1[C@@H]2[C@H](CN1C(=O)[C@@H](NC(=O)NC1(CS(=O)(=O)C(C)(C)C)CCCCC1)C1CCCCC1)C2(C)C)C(=O)C(=O)NC1CC1 (stereo partly drawn) [Compound 574] | 0.075 to 0.25 µM
32 | C=CCNC(=O)C(=O)C(CC(C)C)NC(=O)[C@@H]1[C@@H]2[C@H](CN1C(=O)[C@@H](NC(=O)NC1(CS(=O)(=O)C(C)(C)C)CCCCC1)C1(C)CCCCC1)C2(C)C (stereo partly drawn) [Compound 575] | 0.075 to 0.25 µM
33 | C=CCNC(=O)C(=O)C(CC(C)C)NC(=O)[C@@H]1[C@@H]2[C@H](CN1C(=O)[C@@H](NC(=O)NC1(CS(=O)(=O)C(C)(C)C)CCCCC1)C(C)(C)C)C2(C)C (stereo partly drawn) [Compound 576] | 0.075 to 0.25 µM
34 | C=CCNC(=O)C(=O)C(CC(C)C)NC(=O)[C@@H]1[C@@H]2[C@H](CN1C(=O)[C@@H](NC(=O)NC1(CS(=O)(=O)C(C)(C)C)CCCCC1)C1CCCCC1)C2(C)C (stereo partly drawn) [Compound 577] | > 0.25 µM
35 | CC(C)CCC(NC(=O)[C@@H]1[C@@H]2[C@H](CN1C(=O)[C@@H](NC(=O)NC1(CS(=O)(=O)C(C)(C)C)CCCCC1)C1(C)CCCCC1)C2(C)C)C(=O)C(=O)NC1CC1 (stereo partly drawn) [Compound 578] | 0.075 to 0.25 µM
36 | CC(C)CCC(NC(=O)[C@@H]1[C@@H]2[C@H](CN1C(=O)[C@@H](NC(=O)NC1(CS(=O)(=O)C(C)(C)C)CCCCC1)C1CCCCC1)C2(C)C)C(=O)C(=O)NC1CC1 (stereo partly drawn) [Compound 579] | < 0.075 µM
37 | C=CCNC(=O)C(=O)C(CCC(C)C)NC(=O)[C@@H]1[C@@H]2[C@H](CN1C(=O)[C@@H](NC(=O)NC1(CS(=O)(=O)C(C)(C)C)CCCCC1)C1(C)CCCCC1)C2(C)C (stereo partly drawn) [Compound 580] | < 0.075 µM
38 | C=CCNC(=O)C(=O)C(CCC(C)C)NC(=O)[C@@H]1[C@@H]2[C@H](CN1C(=O)[C@@H](NC(=O)NC1(CS(=O)(=O)C(C)(C)C)CCCCC1)C(C)(C)C)C2(C)C (stereo partly drawn) [Compound 581] | < 0.075 µM
39 | C=CCNC(=O)C(=O)C(CCC(C)C)NC(=O)[C@@H]1[C@@H]2[C@H](CN1C(=O)[C@@H](NC(=O)NC1(CS(=O)(=O)C(C)(C)C)CCCCC1)C1CCCCC1)C2(C)C (stereo partly drawn) [Compound 582] | < 0.075 µM
40 | CC(C)CCC(NC(=O)[C@@H]1[C@@H]2[C@H](CN1C(=O)[C@@H](NC(=O)NC1(CS(=O)(=O)C(C)(C)C)CCCCC1)C(C)(C)C)C2(C)C)C(=O)C(=O)NC1CC1 (stereo partly drawn) [Compound 583] | < 0.075 µM
41 | CCCCC(NC(=O)[C@@H]1[C@@H]2[C@H](CN1C(=O)[C@@H](NC(=O)NC1(CS(=O)(=O)C(C)(C)C)CCCCC1)C(C)(C)C)C2(Cl)Cl)C(=O)C(=O)NC1CC1 (stereo partly drawn) [Compound 584] | < 0.075 µM
42 | CCCC(NC(=O)[C@@H]1[C@@H]2[C@H](CN1C(=O)[C@@H](NC(=O)NC1(CS(=O)(=O)C(C)(C)C)CCCCC1)C(C)(C)C)C2(Cl)Cl)C(=O)C(=O)NC1CC1 (stereo partly drawn) [Compound 585] | < 0.075 µM
43 | CC1([C@H](NC(=O)NC2(CS(=O)(=O)C(C)(C)C)CCCCC2)C(=O)N2C[C@H]3[C@@H]([C@H]2C(=O)NC(CC2CC2)C(=O)C(=O)NCc2nccs2)C3(C)C)CCCCC1 (stereo partly drawn) [Compound 586] | < 0.075 µM
44 | C=CCNC(=O)C(=O)C(CCC)NC(=O)[C@@H]1[C@@H]2[C@H](CN1C(=O)[C@@H](NC(=O)NC1(CS(=O)(=O)C(C)(C)C)CCCCC1)C(C)(C)C)C2(Cl)Cl (stereo partly drawn) [Compound 589] | < 0.075 µM
45 | C=CCNC(=O)C(=O)C(CC1CCC1)NC(=O)[C@@H]1[C@@H]2[C@H](CN1C(=O)[C@@H](NC(=O)NC1(CS(=O)(=O)C(C)(C)C)CCCCC1)C(C)(C)C)C2(Cl)Cl (stereo partly drawn) [Compound 590] | < 0.075 µM
